From the supplement of paper PMC5499739
In all, about 16,000 sequences were measured (“Z-score”: median about -0.37, highest 2% from about 3.2 on). Some of the results follow.

Tested on: RBM10 RRM1-ZnF (GST-tagged construct)
Assay: RNAcompete 7-mer binding Z-score; higher = stronger binding preference
Outline: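 Each heptamer motif was given a one-sided Z-score for enrichment across the probes that contained it. GST-tagged RBM10 constructs (20 pmol) were combined with 1.5 nmol of a designed pool of 241 399 RNAs of up to 41 nt, transcribed from microarray-derived DNA templates. Binding took place in 1 ml Hepes pH 7.8 buffer containing KCl, NaCl, glycerol, DTT, BSA and glutathione Sepharose beads for 30 min at 4°C. After four 2-min washes at 4°C, bound RNA was identified by microarray hybridisation.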

Row | Sequence | RNAcompete 7-mer binding Z-score
1 | AGGAAGC | 1.08
2 | ACCUUAA | -0.883
3 | ACAUCCU | -0.909
4 | AAUGCCU | -0.72
5 | AGCCUGA | -0.587
6 | UAGUUCA | -0.503
7 | AUUCUGA | -0.811
8 | CAUCCCG | -0.591
9 | UCAAGCG | -0.282
10 | GAGUCGG | 1.16
11 | CAAUUUA | -0.636
12 | UGGCCGG | 0.706
13 | GCUAGUC | -0.451
14 | UGUUAGA | -0.0642
15 | UGAAAUA | -0.285
16 | CUGGCAC | -0.00896
17 | GGAUGGC | 2.58
18 | CGAUAAC | -0.565
19 | AGCGUAU | -0.0317
20 | UUAAAUU | -0.685
21 | UCUGAAC | -0.724
22 | AAGGUAA | 2.97
23 | ACGUCUG | -0.591
24 | UCUCGGU | -0.366

Row | Sequence | RNAcompete 7-mer binding Z-score
25 | CCUAAGU | -0.558
26 | GAUACGU | -0.022
27 | AGUCACA | -0.197
28 | AAAGCCA | -0.6
29 | UCAUGCG | -0.594
30 | UCGAUCG | -0.642
31 | CGACGAA | -0.35
32 | UCUUGCG | -0.652
33 | GUGGUGU | 1.93
34 | GUCACAA | -0.266
35 | GACACCA | -0.412
36 | UAGCAGC | -0.21
37 | UUUCUUU | -0.772
38 | UAGUGGG | 2.76
39 | GGGCAGU | 2.28
40 | CGCGUUC | -0.594
41 | UGCAAAU | -0.493
42 | CCCAUCA | -0.847
43 | GCGCUCG | -0.24
44 | UGUAAGU | -0.142
45 | CUCGAAG | -0.415
46 | UCUCUGA | -0.691
47 | CUGCAGA | -0.428
48 | CGAUGCG | 0.231

Row | Sequence | RNAcompete 7-mer binding Z-score
49 | UCGUUAU | -0.698
50 | AAUCUAU | -0.591
51 | UGGAAUC | 0.475
52 | UGUGUUG | 0.319
53 | UUACGGC | -0.363
54 | GCCCAAA | -0.733
55 | ACUUGAG | -0.422
56 | ACGAAAU | -0.347
57 | AAACCAA | -0.548
58 | GAUUCUA | -0.681
59 | AAUUCCA | -0.782
60 | GAAGAUG | 1.81
61 | UCACUUU | -0.844
62 | ACUGUCU | -0.821
63 | UCCUAGU | -0.629
64 | UCAGACA | -0.555
65 | GCGGGCG | 2.18
66 | CAGUAAC | -0.23
67 | UAUCAAC | -0.639
68 | GGGCGUU | 1.21
69 | UUUGCCC | -0.652
70 | AUAGUAU | -0.0155
71 | AGCUACA | -0.227
72 | CCACCUC | -0.487

Row | Sequence | RNAcompete 7-mer binding Z-score
73 | CAAAAUU | -0.655
74 | UGGUCGU | 0.342
75 | GUGCGGU | 1.45
76 | UCACUCA | -0.711
77 | GCACGAC | 0.00729
78 | CUUGGGC | 0.452
79 | GCUGAAA | -0.106
80 | GUCACCC | -0.327
81 | ACCGAUU | -0.743
82 | UAUAUGC | -0.36
83 | UGUUUUG | -0.227
84 | UUCAAAU | -0.607
85 | AUUCUCA | -0.6
86 | CUUGCCA | -0.756
87 | UUAACAU | -0.487
88 | CCAAUGU | -0.464
89 | GCACGAG | 0.579
90 | AAAGAGU | 0.527
91 | AGAUUAU | -0.259
92 | GCUCAGA | -0.262
93 | CGGUACA | 0.4
94 | GAAAAGA | 0.722
95 | UUUACUA | -0.746
96 | GUCCGCG | 0.0333

Row | Sequence | RNAcompete 7-mer binding Z-score
97 | GACGGGC | 1.12
98 | CCCACGG | -0.0382
99 | UACUGCG | -0.279
100 | CGAGUGU | 0.339
101 | AUACUUC | -0.75
102 | UACAGCA | -0.474
103 | CUUCGGA | -0.444
104 | GAUCUAU | -0.574
105 | UGAGAAC | -0.0934
106 | AGUCAUA | -0.366
107 | UCUAGGG | 1.34
108 | GCGGGCC | 0.277
109 | GCGUCCA | -0.454
110 | CCAGAGU | -0.269
111 | UUGUUAC | -0.373
112 | AUUGCCG | -0.568
113 | CGUAAAA | -0.347
114 | AUUAUAA | -0.34
115 | UCGAUUU | -0.604
116 | GAGCCCU | -0.594
117 | AUCGCCC | -0.772
